# Over roughly 2,900 compounds, “IRF Lucia reporter activity, fold change vs agonist alone” has its median near 0.9; the highest 2% begin near 2.8. Some of the results follow.
# Legend:
# [1] = system: RAW-Dual; assay: IRF Lucia reporter activity, fold change vs agonist alone; cytotoxicity flag (confluency mask): not cytotoxic; higher = enhanced IRF activity
# Outline: (§1)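 RAW-Dual macrophages were seeded in DMEM at 50,000 cells/well in 384-well plates, given 50 nL of library stock by pin tool, and given a PRR agonist 1 h later. Plates were held at 37 °C, 5% CO2 for 20 hours, after which supernatant was read for IRF by QuantiLuc luminescence and for NF-κB by QuantiBlue absorbance at 620 nm. Reporter activity is expressed as fold change over wells that received agonist alone. A well was called cytotoxic when IncuCyte confluency fell below 70% of agonist controls in both mask sets.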
# [2] = system: RAW-Dual; assay: IRF Lucia reporter activity, fold change vs agonist alone; higher = enhanced IRF activity; settings: cytotoxicity flag (confluency mask): not cytotoxic, agonist: MPLA (TLR4) […]
# Outline: as §1
# [3] = system: RAW-Dual; assay: IRF Lucia reporter activity, fold change vs agonist alone; cytotoxicity flag (confluency mask): cytotoxic (confluency <70% of control); higher = enhanced IRF activity
# Outline: as §1
# [4] = agonist: 3'3'-cGAMP (STING) 10 ug/mL
# [5] = library stock concentration (final ~1000-fold dilution): 10 mM
structure (smiles),measurement,setting,value
CC(C)Nc1cc(-c2c[nH]c(C(=O)NC(CO)c3cccc(Cl)c3)c2)c(Cl)cn1 (stereo unspecified) (library stock concentration (final ~1000-fold dilution): 10 mM),IRF Lucia reporter activity,[1]; [4],0.448
same,IRF Lucia reporter activity,[1]; agonist: LPS (TLR4) 0.1 ug/mL,0.679
Cn1cc(Nc2nccc(N3CC4CCC(C3)N4C(=O)C3CC3(F)F)n2)cn1 (stereo unspecified) (library stock concentration (final ~1000-fold dilution): 10 mM),IRF Lucia reporter activity,[1]; [4],0.223
same,IRF Lucia reporter activity,[1]; agonist: LPS (TLR4) 0.1 ug/mL,0.505
Oc1cc2c(cc1O)CN(C(=S)NCCc1ccc(Cl)cc1)CCC2 (library stock concentration (final ~1000-fold dilution): 10 mM),IRF Lucia reporter activity,[1]; [4],0.0216
same,IRF Lucia reporter activity,[1]; agonist: LPS (TLR4) 0.1 ug/mL,0.153
Cl.Cn1cc(C(=O)Nc2ccc3c(c2)OCCO3)c2ccccc2c1=O (library stock concentration (final ~1000-fold dilution): 10 mM),IRF Lucia reporter activity,[1]; [4],0.791
same,IRF Lucia reporter activity,[1]; agonist: LPS (TLR4) 0.1 ug/mL,0.445
O=C1Cc2c([nH]c3ccc(Br)cc23)-c2ccccc2N1 (library stock concentration (final ~1000-fold dilution): 10 mM),IRF Lucia reporter activity,[1]; [4],0.27
same,IRF Lucia reporter activity,[1]; agonist: LPS (TLR4) 0.1 ug/mL,0.174
CCc1c(O)cc(O)c(C(=O)c2ccc(OCCN3CCOCC3)c(OC)c2)c1CC(=O)N(CCOC)CCOC,IRF Lucia reporter activity,[2]; [5],0.951
CCc1c(O)cc(O)c(C(=O)c2ccc(OCCN3CCOCC3)c(OC)c2)c1CC(=O)N(CCOC)CCOC (library stock concentration (final ~1000-fold dilution): 10 mM),IRF Lucia reporter activity,[1]; [4],1.23
same,IRF Lucia reporter activity,[1]; agonist: LPS (TLR4) 0.1 ug/mL,1.08
Cc1cc2c(C(N)=O)cccc2n1-c1nc2c(c(NCc3ccccc3)n1)COCC2 (library stock concentration (final ~1000-fold dilution): 10 mM),IRF Lucia reporter activity,[3]; [4],0.0146
same,IRF Lucia reporter activity,[3]; agonist: LPS (TLR4) 0.1 ug/mL,0.478
Cc1coc2c1C(=O)C(=O)c1c-2ccc2c1CCCC2(C)C,IRF Lucia reporter activity,[2]; [5],0.627
Cc1coc2c1C(=O)C(=O)c1c-2ccc2c1CCCC2(C)C (library stock concentration (final ~1000-fold dilution): 10 mM),IRF Lucia reporter activity,[1]; [4],0.536
same,IRF Lucia reporter activity,[1]; agonist: LPS (TLR4) 0.1 ug/mL,0.587
COc1cc(C(=O)O)ccc1NC(=O)C1NC(CC(C)(C)C)C(C#N)(c2ccc(Cl)cc2F)C1c1cccc(Cl)c1F (stereo unspecified) (library stock concentration (final ~1000-fold dilution): 10 mM),IRF Lucia reporter activity,[1]; [4],0.62
same,IRF Lucia reporter activity,[1]; agonist: LPS (TLR4) 0.1 ug/mL,0.186
COc1cc(C(=O)O)ccc1NC(=O)C1NC(CC(C)(C)C)C(C#N)(c2ccc(Cl)cc2F)C1c1cccc(Cl)c1F (stereo unspecified),IRF Lucia reporter activity,[2]; [5],0.67
CCN(CCO)CCCC(C)Nc1ccnc2cc(Cl)ccc12.O=S(=O)(O)O (stereo unspecified) (library stock concentration (final ~1000-fold dilution): 10 mM water),IRF Lucia reporter activity,[1]; [4],0.923
same,IRF Lucia reporter activity,[1]; agonist: LPS (TLR4) 0.1 ug/mL,0.914
CCN(CCO)CCCC(C)Nc1ccnc2cc(Cl)ccc12.O=S(=O)(O)O (stereo unspecified),IRF Lucia reporter activity,[2]; library stock concentration (final ~1000-fold dilution): 10 mM water,1.13
CC(=O)OC12COC1CC(O)C1(C)C(=O)C(O)C3=C(C)C(OC(=O)C(O)C(NC(=O)OC(C)(C)C)c4ccccc4)CC(O)(C(OC(=O)c4ccccc4)C21)C3(C)C.O.O.O (stereo unspecified) (library stock concentration (final ~1000-fold dilution): 10 mM),IRF Lucia reporter activity,[1]; [4],0.558
same,IRF Lucia reporter activity,[1]; agonist: LPS (TLR4) 0.1 ug/mL,0.974
Nc1nc2cc(-c3ccc4ncc(C(=O)N5CCOCC5)n4c3)ccc2o1 (library stock concentration (final ~1000-fold dilution): 10 mM),IRF Lucia reporter activity,[1]; [4],0.343
same,IRF Lucia reporter activity,[1]; agonist: LPS (TLR4) 0.1 ug/mL,1.04
COc1cccc2cc(-c3nc(C4CCC(C(=O)O)CC4)n4ncnc(N)c34)[nH]c12 (stereo unspecified) (library stock concentration (final ~1000-fold dilution): 10 mM),IRF Lucia reporter activity,[1]; [4],0.354
same,IRF Lucia reporter activity,[1]; agonist: LPS (TLR4) 0.1 ug/mL,0.855
COc1cccc2cc(-c3nc(C4CCC(C(=O)O)CC4)n4ncnc(N)c34)[nH]c12 (stereo unspecified),IRF Lucia reporter activity,[2]; [5],0.765
CCC(C(=O)O)c1ccc(N2Cc3ccccc3C2=O)cc1 (stereo unspecified),IRF Lucia reporter activity,[2]; [5],1.04
CCC(C(=O)O)c1ccc(N2Cc3ccccc3C2=O)cc1 (stereo unspecified) (library stock concentration (final ~1000-fold dilution): 10 mM),IRF Lucia reporter activity,[1]; [4],0.977
same,IRF Lucia reporter activity,[1]; agonist: LPS (TLR4) 0.1 ug/mL,1.31
CC1OC(OC2C(CO)OC(OCC3OC(OC(=O)[C@]45CC[C@@H](C)[C@H](C)[C@H]4C4=CCC6[C@@]7(C)C[C@@H](O)[C@@H](O)[C@@](C)(CO)C7CC[C@@]6(C)[C@]4(C)CC5)C(O)C(O)C3O)C(O)C2O)C(O)C(O)C1O (stereo partly specified) (library stock concentration (final ~1000-fold dilution): 10 mM),IRF Lucia reporter activity,[1]; [4],0.357
same,IRF Lucia reporter activity,[1]; agonist: LPS (TLR4) 0.1 ug/mL,0.657
Oc1ccc(-c2c(-c3ccccc3)nn3c(C(F)(F)F)cc(C(F)(F)F)nc23)cc1 (library stock concentration (final ~1000-fold dilution): 10 mM),IRF Lucia reporter activity,[1]; [4],1.18
same,IRF Lucia reporter activity,[1]; agonist: LPS (TLR4) 0.1 ug/mL,0.89
NC1CC1c1ccc(-c2cccc(O)c2)cc1 (stereo unspecified),IRF Lucia reporter activity,[2]; [5],1.07
NC1CC1c1ccc(-c2cccc(O)c2)cc1 (stereo unspecified) (library stock concentration (final ~1000-fold dilution): 10 mM),IRF Lucia reporter activity,[1]; [4],0.33
same,IRF Lucia reporter activity,[1]; agonist: LPS (TLR4) 0.1 ug/mL,1.1

# Reference: the supplement of paper PMC10037445
